According to the RNAGym collection of RNA variant scans (doi:10.1073/pnas.2313332121):
Variants at the floor of the assay are shown more often than the library holds them.

B1: TPR 5TU (parent)
chain: GGAUCUUCUCGAUCUAACAAAAAAGACAAAUCUGCCACAAAGCUUGAGAGCAUCUUCGGAUGCAGAGGCGGCAGCCUUCGGUGGCGCGAUAGCGCCAACGUUCUCAACUAUGACACGCAAAACGCGUGCUCCGUUGAAUGGAGUUUAUCAUG

Variants of: B1
Experiment: polymerase ribozyme fitness, log enrichment relative to wild type (log ratio); higher = more active; in vitro selection for triplet polymerase activity
Procedure, shortened: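 Fitness compares each genotype's enrichment to that of the wild type on a logarithmic scale, averaging replicates with inverse-variance weights. The logarithm is base 2. Enrichment came from Illumina sequencing of input and output libraries after one triplicate round of in vitro selection, which included frozen incubation at −7 °C, of PCR-built, transcribed mutant libraries of each subunit of a heterodimeric triplet polymerase ribozyme. Only genotypes with ≥10 input reads and ≥1 read per output were kept.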

Q: With A26C A28U C75U A91U C108G G133A G141C as the variant, how does the “polymerase ribozyme fitness (log ratio)” value read?
A: Its value is ≤ -4.2.

Q: Which “polymerase ribozyme fitness (log ratio)” value does the source give for A24U G42C C87G C99A here?
A: The value was ≤ -4.2.

Q: Which “polymerase ribozyme fitness (log ratio)” value does the source give for A24G U31A G42C A52G A60C C87G C114U here?
A: The value was ≤ -4.2.

Q: For A24C C27U A52G, which “polymerase ribozyme fitness (log ratio)” value is on record?
A: The value was ≤ -4.2.

Q: With C27A C75G C99U A137G as the variant, how does the “polymerase ribozyme fitness (log ratio)” value read?
A: Its value is ≤ -4.2.

Q: For A26C A49U C108A A121U G124U A137C U146G U148A, which “polymerase ribozyme fitness (log ratio)” value is on record?
A: Its value is ≤ -4.2.

Q: For A26C A91C A110G, which “polymerase ribozyme fitness (log ratio)” value is on record?
A: The value was ≤ -4.2.

Q: With A26G A66G A122C G136A G141U as the variant, how does the “polymerase ribozyme fitness (log ratio)” value read?
A: The value was ≤ -4.2.

Q: Which “polymerase ribozyme fitness (log ratio)” value does the source give for A26U U102A here?
A: Its value is ≤ -4.2.

Q: For A24U A52C C54U G67C C87A C103U, which “polymerase ribozyme fitness (log ratio)” value is on record?
A: Its value is ≤ -4.2.

Q: With A26G A49U U55A U61A C75U as the variant, how does the “polymerase ribozyme fitness (log ratio)” value read?
A: The value was ≤ -4.2.

Q: With A26C C108U A120G G124U G136U U148A as the variant, how does the “polymerase ribozyme fitness (log ratio)” value read?
A: The value was ≤ -4.2.

Q: For A24G C54G G68U C76G G81A C85G, which “polymerase ribozyme fitness (log ratio)” value is on record?
A: Its value is ≤ -4.2.

Q: Which “polymerase ribozyme fitness (log ratio)” value does the source give for C27A G34C U78G A91U A113G A150G here?
A: Its value is ≤ -4.2.

Q: With A24G A39C G48U A60C C93G as the variant, how does the “polymerase ribozyme fitness (log ratio)” value read?
A: The value was ≤ -4.2.

Q: Which “polymerase ribozyme fitness (log ratio)” value does the source give for A24G G65C A91G here?
A: Its value is ≤ -4.2.

Q: For A26C A30G A52U U53A C93U A97G, which “polymerase ribozyme fitness (log ratio)” value is on record?
A: Its value is ≤ -4.2.

Q: Which “polymerase ribozyme fitness (log ratio)” value does the source give for A24U A60U U77G G84U C85A C87G U127A G128C A138C here?
A: The value was ≤ -4.2.

Q: Which “polymerase ribozyme fitness (log ratio)” value does the source give for A26C C36U C105U A137U here?
A: Its value is ≤ -4.2.

Q: With A23U G92A G100U U127G G143C A150U as the variant, how does the “polymerase ribozyme fitness (log ratio)” value read?
A: The value was ≤ -4.2.

Q: With A24G C43U U55A A64G C76A G136A as the variant, how does the “polymerase ribozyme fitness (log ratio)” value read?
A: The value was ≤ -4.2.

Q: Which “polymerase ribozyme fitness (log ratio)” value does the source give for A26C A41G U61A G70U G88C here?
A: The value was ≤ -4.2.

Q: Which “polymerase ribozyme fitness (log ratio)” value does the source give for A23U G84A C96U A106G C108G A137U here?
A: The value was ≤ -4.2.

Q: With G25C A64C G83A U109G C114A G140A as the variant, how does the “polymerase ribozyme fitness (log ratio)” value read?
A: The value was ≤ -4.2.

Q: Which “polymerase ribozyme fitness (log ratio)” value does the source give for A24U G42U C54A C108U U139C here?
A: The value was ≤ -4.2.

Q: For A26G C35A A64C U90A C95G, which “polymerase ribozyme fitness (log ratio)” value is on record?
A: The value was ≤ -4.2.

Q: Which “polymerase ribozyme fitness (log ratio)” value does the source give for A26G A28C C36G C63U A91C C93A C118A here?
A: Its value is ≤ -4.2.

Q: With A24U U45A G50A C116U A150G as the variant, how does the “polymerase ribozyme fitness (log ratio)” value read?
A: Its value is ≤ -4.2.

Q: With A24C U78A C96U U134C A138C A142G as the variant, how does the “polymerase ribozyme fitness (log ratio)” value read?
A: The value was ≤ -4.2.

Q: For A24C A30U C72U C76U C96U G136A A138U, which “polymerase ribozyme fitness (log ratio)” value is on record?
A: Its value is ≤ -4.2.

Q: Which “polymerase ribozyme fitness (log ratio)” value does the source give for G25U G100C here?
A: The value was ≤ -4.2.

Q: With A26C C79G as the variant, how does the “polymerase ribozyme fitness (log ratio)” value read?
A: Its value is ≤ -4.2.

Q: With A23U G25U A41C C54U C57G G59A G62A C93U A147U as the variant, how does the “polymerase ribozyme fitness (log ratio)” value read?
A: Its value is ≤ -4.2.

Q: For A24C A41C C57U C85G G117A C149G, which “polymerase ribozyme fitness (log ratio)” value is on record?
A: Its value is ≤ -4.2.

Q: For C27A A29G G48U G59U C76A C132A, which “polymerase ribozyme fitness (log ratio)” value is on record?
A: The value was ≤ -4.2.

Q: Which “polymerase ribozyme fitness (log ratio)” value does the source give for A26U U45C G141C here?
A: Its value is ≤ -4.2.

Q: With A24C A47C C51A G83A C93U G124C G140U as the variant, how does the “polymerase ribozyme fitness (log ratio)” value read?
A: Its value is ≤ -4.2.

Q: With A26C C32G A39U U78C G140U as the variant, how does the “polymerase ribozyme fitness (log ratio)” value read?
A: Its value is ≤ -4.2.

Q: For A24U G50A C95U C99A, which “polymerase ribozyme fitness (log ratio)” value is on record?
A: Its value is ≤ -4.2.

Q: For A23U G25C C35U G59C G74A A113G, which “polymerase ribozyme fitness (log ratio)” value is on record?
A: Its value is ≤ -4.2.

Q: With A26G U53C C87U as the variant, how does the “polymerase ribozyme fitness (log ratio)” value read?
A: The value was ≤ -4.2.

Q: Which “polymerase ribozyme fitness (log ratio)” value does the source give for A24C A49G C105U here?
A: Its value is ≤ -4.2.

Q: For G25A A28G G59U C72U C85A C93U C96U A110C C116A U148A C149U, which “polymerase ribozyme fitness (log ratio)” value is on record?
A: Its value is ≤ -4.2.

Q: With A26U A29C U56A G59C U61G as the variant, how does the “polymerase ribozyme fitness (log ratio)” value read?
A: Its value is ≤ -4.2.

Q: With A23U G25A G46U U53A C69A G86C A91U U127G U144A as the variant, how does the “polymerase ribozyme fitness (log ratio)” value read?
A: Its value is ≤ -4.2.

Q: Which “polymerase ribozyme fitness (log ratio)” value does the source give for A26C A47G G50U G58A G59U C85A C132G here?
A: The value was ≤ -4.2.

Q: Which “polymerase ribozyme fitness (log ratio)” value does the source give for A26U C75G C85A C95A here?
A: The value was ≤ -4.2.

Q: For A24G A47G C54U A60C G74U C108G, which “polymerase ribozyme fitness (log ratio)” value is on record?
A: Its value is ≤ -4.2.

Q: For A24C G81A C93G A121C G133U, which “polymerase ribozyme fitness (log ratio)” value is on record?
A: Its value is ≤ -4.2.

Q: With A24C C63A G81C G92U A98U A115G as the variant, how does the “polymerase ribozyme fitness (log ratio)” value read?
A: The value was ≤ -4.2.

Q: With A23U G71A C105G as the variant, how does the “polymerase ribozyme fitness (log ratio)” value read?
A: Its value is ≤ -4.2.

Q: Which “polymerase ribozyme fitness (log ratio)” value does the source give for A24G A49C here?
A: The value was ≤ -4.2.

Q: For A26C G59C C99U U102G C116U U135C, which “polymerase ribozyme fitness (log ratio)” value is on record?
A: Its value is ≤ -4.2.

Q: Which “polymerase ribozyme fitness (log ratio)” value does the source give for A24G C85G U148C here?
A: Its value is ≤ -4.2.

Q: For A26U C27U U101A A121U G141C, which “polymerase ribozyme fitness (log ratio)” value is on record?
A: Its value is ≤ -4.2.

Q: With A24U U77A A106G A122C G124U as the variant, how does the “polymerase ribozyme fitness (log ratio)” value read?
A: Its value is ≤ -4.2.

Q: Which “polymerase ribozyme fitness (log ratio)” value does the source give for A26C U55G G88U U109G G112C A150G here?
A: Its value is ≤ -4.2.

Q: Which “polymerase ribozyme fitness (log ratio)” value does the source give for G25U C57U G67A C93G G124A G136A here?
A: The value was ≤ -4.2.

Q: Which “polymerase ribozyme fitness (log ratio)” value does the source give for A24U C36U G59C U77A C87U here?
A: Its value is ≤ -4.2.

Q: For G25U U77C C79A U146C, which “polymerase ribozyme fitness (log ratio)” value is on record?
A: The value was ≤ -4.2.

Q: For A26C C38U A39C A49C C108U U134G, which “polymerase ribozyme fitness (log ratio)” value is on record?
A: The value was ≤ -4.2.

Q: Which “polymerase ribozyme fitness (log ratio)” value does the source give for A24C G71A C87G A113G A147U here?
A: The value was ≤ -4.2.

Q: Which “polymerase ribozyme fitness (log ratio)” value does the source give for A24C C69G here?
A: Its value is ≤ -4.2.

Q: With A24U A41U G59C G74C G84U G92C as the variant, how does the “polymerase ribozyme fitness (log ratio)” value read?
A: Its value is ≤ -4.2.

Q: For A24U A28C G71U C99A C114U A120G A121U G141A U144A, which “polymerase ribozyme fitness (log ratio)” value is on record?
A: Its value is ≤ -4.2.

Q: Which “polymerase ribozyme fitness (log ratio)” value does the source give for G25U C96A A106U A122G C129G here?
A: The value was ≤ -4.2.

Q: With C27A C96G U101G U144G as the variant, how does the “polymerase ribozyme fitness (log ratio)” value read?
A: Its value is ≤ -4.2.

Q: For A26G C114U A142G A150G, which “polymerase ribozyme fitness (log ratio)” value is on record?
A: Its value is ≤ -4.2.

Q: Which “polymerase ribozyme fitness (log ratio)” value does the source give for A24G U77A A89G A113C here?
A: Its value is ≤ -4.2.

Q: For A23U C87G G100A A107G A147C, which “polymerase ribozyme fitness (log ratio)” value is on record?
A: Its value is ≤ -4.2.

Q: With A23U U45A G48A G50A C57G C87A A147G A150G as the variant, how does the “polymerase ribozyme fitness (log ratio)” value read?
A: The value was ≤ -4.2.

Q: For A26G U44A U78C C99G G126A U134G, which “polymerase ribozyme fitness (log ratio)” value is on record?
A: The value was ≤ -4.2.

Q: For A26U G59C C75A G117U U144G, which “polymerase ribozyme fitness (log ratio)” value is on record?
A: The value was ≤ -4.2.

Q: Which “polymerase ribozyme fitness (log ratio)” value does the source give for G25U G92A G124U U135G A142G here?
A: Its value is ≤ -4.2.

Q: For C27A C32U C38U C63U A73G C79G C93G, which “polymerase ribozyme fitness (log ratio)” value is on record?
A: Its value is ≤ -4.2.

Q: For A26U C32G G62U A64G U82G C87G C96G U134A G141C, which “polymerase ribozyme fitness (log ratio)” value is on record?
A: Its value is ≤ -4.2.

Q: With A26U C32G U82C C96U U109C A113C U145C as the variant, how does the “polymerase ribozyme fitness (log ratio)” value read?
A: Its value is ≤ -4.2.

Q: For A24G C79A G84U A120U U127G C149G, which “polymerase ribozyme fitness (log ratio)” value is on record?
A: The value was ≤ -4.2.

Q: Which “polymerase ribozyme fitness (log ratio)” value does the source give for C27A G34A C54U A107U here?
A: Its value is ≤ -4.2.

Q: For A26C A29U C95U G140C, which “polymerase ribozyme fitness (log ratio)” value is on record?
A: Its value is ≤ -4.2.

Q: With A24U U78C A89G C96U G100A A150G as the variant, how does the “polymerase ribozyme fitness (log ratio)” value read?
A: The value was ≤ -4.2.

Q: Which “polymerase ribozyme fitness (log ratio)” value does the source give for G25C G59C G84A C87G A142U here?
A: Its value is ≤ -4.2.

Q: Which “polymerase ribozyme fitness (log ratio)” value does the source give for A23U C87U C103G U109G U135C here?
A: Its value is ≤ -4.2.
